The source of these data is the supplement of paper PMC11865577.

Experiment in all cases: pull-down binding Z-score (relative to library population); higher = stronger binding
In series [1] the test system is G-clamp-N3 (biotin conjugate). The following applies: RNA library: Library-1 (pre-miRNA loops + repeats). The gist of the method:
(§1)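 The RNA library, end-labelled with Cy5 or Cy3, was heat-folded in phosphate/NaCl/KCl buffer, and 1 μg was incubated at 25 °C for 60 min with streptavidin beads carrying 100 pmol of biotin-conjugated small molecule. Hot SDS released the bound RNA, which was then hybridised to a DNA barcode microarray for 20 h at 55.5 °C. For scoring binding, signal from beads alone was subtracted, replicate barcoded probes were averaged after discarding the highest and lowest, and each value was turned into a Z-score from the library mean and standard deviation.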

The test system of series [2] is TO-3-N3 (biotin conjugate). The conditions noted are these: RNA library: Library-2. The gist of the method: as §1
The test system of a further series is TO-N3 (biotin conjugate). The following applies: RNA library: Library-2. The gist of the method: as §1
In series [3] the test system is TO-3-N3-2 (biotin conjugate). The conditions noted are these: RNA library: Library-2. The method, boiled down:
as §1

Series [4] has as its system TO-N3-2 (biotin conjugate). The following applies: RNA library: Library-2. The gist of the method:
as §1

With AUUGCACUCC [U1A], the “pull-down binding Z-score” value in series [1] was -1.23. The same measure, in the same setting: then GGGUGGGUGGGUGGGUGGGUGGGU [G4_(GGGU)6], with 2.56; and “GGGUGGGUGGGUGGGUGGGUGGGUGGGUGGGU [G4_(GGGU)8]”, with 2.08. Still for that read-out and setting: for “GGGUUGGGUUGGGUUGGGUUGGGUUGGGUU [G4_(GGGUU)6]” the value was 2.27; for “GGGUUGGGUUGGGUUGGGUUGGGUUGGGUUGGGUUGGGUU [G4_(GGGUU)8]”, 0.567; for “GGGUUUAAUUACGAAAGUAAUUGGAUCC [Disney2016_Control_RNAC]”, 0.674. Same read-out and setting: for “GGGUUUACGAACGAAAGUUGGUGGAUCC [Disney2016_Control_RNA2]” the value was 0.361; for “GGGUUUACGAUUUACGAAAGUAAAUUGUGGAUCC [Disney2016_Control_RNA5]”, -0.323; for “GGGUUUACGAUUUACGAAAGUAUAUCGUGGAUCC [Disney2016_Control_RNA4]”, 0.973.

For “GGGUUUACGAUUUACGAAAGUAUAUGGUGGAUCC [Disney2016_Control_RNA3]”, in series [1], the “pull-down binding Z-score” value came out at 0.7. Same read-out and setting: for “GGGUUUAUUUACGAAAGUAUAUGGAUCC [Disney2016_Control_RNA1]” the value was 0.172. With “UUGCCAUGUGUAUGUGGGACACCCCACAUACUUUGUUGAUCCACACGGAUCAAUCAUGGCAA [3-way model-4_mPhi29pRNA]”, the “pull-down binding Z-score” value in series [2] was -0.728; in the series on TO-N3 (biotin conjugate) it was -1; in series [3] it was -0.583; in series [4], -1.11.
